Experimental data: FireProtDB (doi:10.1016/j.jmb.2009.08.026)

Settings: Homo sapiens; pH 6.6; Thermal; DSC; ADA (N-(2-acetamide)iminodiaceticacid); reversible: Yes (>80%)

Fibroblast growth factor 1 wild type (sequence not shown)
Tm: 39.8 °C | unfolding enthalpy (calorimetric): 65.7 kcal/mol
